Consider 72 sequences from PMC10726135.

Some of the results follow. At the low end of the ranking the order means little. The protein was read in a cell extract, so binding may be indirect.

The target in the assay is T1, HNF4alpha2 (COS-7 nuclear extract) (UniProt P41235).
T1 sequence: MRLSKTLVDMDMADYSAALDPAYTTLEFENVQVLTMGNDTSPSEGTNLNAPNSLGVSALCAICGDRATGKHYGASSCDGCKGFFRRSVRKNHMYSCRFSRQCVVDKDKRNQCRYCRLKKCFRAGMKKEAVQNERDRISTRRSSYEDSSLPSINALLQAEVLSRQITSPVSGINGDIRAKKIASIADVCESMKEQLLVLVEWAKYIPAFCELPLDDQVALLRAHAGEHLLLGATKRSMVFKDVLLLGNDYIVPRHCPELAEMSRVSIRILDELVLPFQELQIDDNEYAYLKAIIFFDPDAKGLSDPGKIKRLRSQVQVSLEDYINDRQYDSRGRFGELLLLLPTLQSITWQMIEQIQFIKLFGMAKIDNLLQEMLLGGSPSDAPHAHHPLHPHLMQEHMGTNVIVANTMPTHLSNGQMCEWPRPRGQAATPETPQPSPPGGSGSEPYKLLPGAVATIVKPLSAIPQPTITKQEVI
Kind of assay: protein-binding microarray. The settings on record: COS-7 nuclear extract on double-stranded Agilent 4x180k PBM; binding buffer, salt, pH and temperature not given; high values mean tight binding; double strand, one strand shown; sequences stand for … in …GCCTAGGGAGATTAGAGTATCGGTCGA
On to CTAGATAAGGGAGATGAAAGGGGCCTCAGA, for which the binding signal (log2 normalized intensity) was -1.06.
Regarding GGAGCATTAGTTGACCATTGTGTTAAAGGA, the binding signal (log2 normalized intensity) was found to be 1.4.
As to TCACAAGAAAGGCAGAAAACTCAGATTCCT, the binding signal (log2 normalized intensity) is -1.2.
TGGAGGCCCAGTAAGTCCCACCCACTAGGC: the binding signal (log2 normalized intensity) came to 2.33.
In the case of CCCTCCCTAAATCCAGAGGTATTTGGCCCA, the binding signal (log2 normalized intensity) was 1.59.
On to AAGAGAGGAGGCTGAAGACTTTGCACCAAG, for which the binding signal (log2 normalized intensity) was -1.09.
Regarding TGTTATCTCTGGAGGTCACTGCTGGTGGGT, the binding signal (log2 normalized intensity) worked out at 2.03.
Consider GGTCAGCAATGTGGACTTTGTCCTGTGGGC, for which the binding signal (log2 normalized intensity) stood at 7.77.
With TCACTGCTCCAGCCACTCATTCTTGGAATG, the binding signal (log2 normalized intensity) is -0.838.
With CGGGAGGCAAGATAAGGGTAATCACCCCCA, the binding signal (log2 normalized intensity) was determined as 2.34.
With TGGAATGTGCTCCCGACTGCTCCACCAGCG the figure was -1.1.
With AAAGTCTGGATCCGTTAACAGCGGCATTCC, the binding signal (log2 normalized intensity) is -1.04.
On to GTGCTCCCCCACCCTGTGTCAGCATCTAAA, for which the binding signal (log2 normalized intensity) came to 3.49.
With TTGCATAATCTGGCTCCAAAGTCTATGTGT, the binding signal (log2 normalized intensity) stood at 2.47.
Consider AATACGCCTCGCCCGAGCTGTGCGGTAGGC, for which the binding signal (log2 normalized intensity) is -1.17.
Take GGGAGGGCACAGGTCAAAAATGATGCCTGA: the binding signal (log2 normalized intensity) turned out to be 0.224.
As to AAACATAAAGGCAAAGGTCAAGGACTGTTC, the binding signal (log2 normalized intensity) came out at 3.51.
With CTCTCTGATTACACAGGCCTTATAGGGCAT the figure was -1.12.
For the sequence GTGTGGATACGATGACATCATCTGTTTGTA, the binding signal (log2 normalized intensity) amounted to 1.6.
Regarding CAAGGGTCAGTTCATTAAAAAAAAAAAAAA, the binding signal (log2 normalized intensity) is 1.19.
Take TCAAAGGGCAGACAGGAACATCTGATTTCC: the binding signal (log2 normalized intensity) was -1.03.
For the sequence TGGTCCGCCTTCATTCCTAGCCCCACCAAA, the binding signal (log2 normalized intensity) was found to be 4.25.
For the sequence TGGCATGTGATAGGCATGCAAACTTTGTTT, the binding signal (log2 normalized intensity) is 0.562.
On to TCCCTCTGCTCCCCTGGCCTCACCCTTGTC, for which the binding signal (log2 normalized intensity) came to 2.72.
Turning to CTGAAAGCAAACAATGATGAAAGGAGCTTG, the binding signal (log2 normalized intensity) was -0.976.
As to GCACCTTTTAAAATAGATAAGTCCCTAAGA, the binding signal (log2 normalized intensity) is -1.1.
For the sequence TTCCCTCGACTTCCTCTTCATATCAGTAAA, the binding signal (log2 normalized intensity) was 1.53.
CAGGTCCAAGGTTCTCCAGGGACCCCCCGA: the binding signal (log2 normalized intensity) was determined as 3.79.
As to CTTCAAGTCAGTCAAAATGAATAGTCCTTT, the binding signal (log2 normalized intensity) stood at 1.19.
As to AGAGAAGATAATGGATTGGGGGCCATGTCT, the binding signal (log2 normalized intensity) is -0.23.
As to AGGCTGCCGTCCTCAGTGAATCACAGCAGC, the binding signal (log2 normalized intensity) was -1.08.
As to GCTTTCTTTCCTAATGGTACCATCTGCCAC, the binding signal (log2 normalized intensity) came to 0.767.
With AGTCTGGTGGCAAGTACCCTTTATCCCTCA the figure was 1.18.
Take TCAGAGCAGGTGAACGACTTGACAAAGGTC: the binding signal (log2 normalized intensity) was determined as 3.22.
On to CTGGCTAAACCAGCCTAACAGGATTTTTGC, for which the binding signal (log2 normalized intensity) was -0.916.
Consider GTCTGGCTGACTAACAAGCTGCCAAACTCT, for which the binding signal (log2 normalized intensity) was -1.21.
On to TTATCATTCTAGAGGTCAGAAGTCCAAAAT, for which the binding signal (log2 normalized intensity) is 4.62.
Consider CTTTGCCCCCCAAGTTGAAGCCATCCTCCC, for which the binding signal (log2 normalized intensity) stood at 5.15.
Regarding ACCGCACTGGAAGCAAGCCCTATTAGGCAT, the binding signal (log2 normalized intensity) is -1.21.
Regarding TTTTAAAAGTATACTATATTTGTCCCACAT, the binding signal (log2 normalized intensity) stood at 0.317.
As to CTCTGACCATGCCTATAAATTGCCTGGCTT, the binding signal (log2 normalized intensity) is -1.09.
For the sequence GGAGGAAAAAGAATGCCTCTTTCAAAACCT, the binding signal (log2 normalized intensity) is -1.13.
With TAAGAGCTATCAATGACCCATGTTTGCCCT the figure was 3; with CTGAGGCAAGTCTCTTTTAGGCTGTCAGCC, -0.548; with ATGCTCAGCCCACCTTTTGGCTGTAGAAAG, 0.667.
Regarding AAGACTTCCTGGCCTCTCTGCAAATTTGCC, the binding signal (log2 normalized intensity) was -0.993.
As to AATGCACTTGTTCCGGATAGCCAAATAGCC, the binding signal (log2 normalized intensity) is -0.596.
Consider AGGCATGAGAGGTGCTGCATGGGCTGAGCC, for which the binding signal (log2 normalized intensity) was -1.21.
TACCGACAACGCCAAGGACCGCCAAGGAAG: the binding signal (log2 normalized intensity) was -1.14.
With ACAAAGGTGAGCTTTTATCTTAAGTGAGGT the figure was 1.03; with AACCCGCCCCCTCCCCCTGCCGGCGGCGCA, 6.06.
With AGGGTCTGTTTTCAAACACAGGATTGAACC, the binding signal (log2 normalized intensity) stood at 2.46.
Next, AGGACAGGGCCCTTCACTATTTTCAAAGGT: -0.802.
Take AAAACACAGCTCACCACCTAGTAAAGGGTG: the binding signal (log2 normalized intensity) is -0.998.
For the sequence TTGAAGTGACTAAATGAGAAGAAATGATGG, the binding signal (log2 normalized intensity) came out at 1.69.
Regarding GCTCTTTGTACCGTTTGAACAGCCAAGGAA, the binding signal (log2 normalized intensity) stood at 1.07.
Next, ACTCATGAGCCATCCTGAACAAATGTACTG: -0.853; CTTCCTGACTTGGCCTGAACCAGTTTCTCA: -1.16.
As for CCCGGGAATTCTGGGTAGTGTAGTTCCGCT, the binding signal (log2 normalized intensity) is -1.2.
With CATGGGCAAATAAAGCTAACCAGCTCTATC, the binding signal (log2 normalized intensity) was -0.988.
As for TGCCGCAACATTGTCCAGCAGACACGGGCA, the binding signal (log2 normalized intensity) is -0.93.
Regarding GGTCCACCGTGCGCAAACACACCCACCAAC, the binding signal (log2 normalized intensity) came out at 1.3.
Turning to TTTGATCTGATGTACCCAGCACTGTCAGCA, the binding signal (log2 normalized intensity) was -1.07.
Next, GGATTAAGGAGAAGGCTCCCAAGGTATCCT: -1.32; ACAGATGGGCTTGCCTAAGACATGCTCGCA: -0.984; ACCTTGCTGATTACAGGTTGCAGTAAAGAA: 0.184.
With TATCTCCCAGCTGGAGTCTTCTCTATCCTT the figure was -0.994; with CAGTGTCACAGACTTAGCACAGGAAAGGGC, -1.02; with GGAAATTGTCAGTGCCCTATACAGACCTTT, 2.82.
In the case of ACCCGGGTACTGGAAACTGGGCAAGGTCCA, the binding signal (log2 normalized intensity) came to 3.46.
For the sequence GCTCACATACCACTGACTAAAGCAAGTCAG, the binding signal (log2 normalized intensity) is -1.12.
In the case of AGGGAGTGGCAGCATTGTGCTGAAAAGACT, the binding signal (log2 normalized intensity) is -0.635.
